Experimental data from PubChem BioAssay AID686970 (National Center for Advancing Translational Sciences (NCATS), 2013).
“And” between values parts separate entries of the source, which are not always exact repeats. Identical values can stand only once. Screen size: about 360,000 compounds; about 6,000 (1.7%) were called active. The shares of active, inactive and inconclusive entries below differ from those in the screen. Calls come from the whole dose curve; as a rule, active = well fitted cell-killing curve with a large enough effect; inconclusive = small, poorly fitted or top-dose-only effect, or effect the other way; inactive = flat fitted curve, though single readings scatter. Potencies beside an inconclusive call are fits to weak or partial responses and may not hold up.

assay: qHTS for induction of synthetic lethality in tumor cells producing 2HG: qHTS for the HT-1080-NT fibrosarcoma cell line; settings: HT-1080-NT fibrosarcoma viability, CellTiter-Glo ATP luminescence, 48 h; activity, negative = less viability: at 46.1 µM (top of the series) unless noted;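 note: NT is the 2HG producing partner of a matched IDH1 knockdown line; nearly all actives have a fitted effect of over 55% in size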;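 for activity, negative = less viability: 0% = DMSO-treated cells and -100% = media-only wells without cells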
How it was run: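 Fibrosarcoma NT cells, 750 per well in 5% FBS RPMI, were exposed to compound for 48 hours. Viability: CellTiter-Glo luminescence.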
Potency is the fitted concentration of half-maximal effect; tags give direction and shape of the fitted curve.

| Compound | Potency | activity, negative = less viability |
| --- | --- | --- |
| CCOC(=O)c1c(C)sc2c1N(C(=O)CN1CCOCC1)c1cc(Cl)ccc1S2 | inconclusive: 18.4 µM [cytotoxic, single point] |  |
| Nc1c(C(=O)NCc2ccco2)c2nc3ccccc3nc2n1CCc1ccc(F)cc1 | inconclusive: 29.1 µM [cytotoxic, single point] |  |
| COC(=O)C1(C(=O)OC)C[C@H](/C=C/c2ccccc2)N(Cc2ccccc2OC)[C@@H]1c1ccc(F)cc1 |  | inactive: -15.1% |
| CCCOc1ccc(C(=O)Nc2ccc(S(=O)(=O)N3C[C@@H]4C[C@@H](C3)c3cccc(=O)n3C4)cc2)cc1 | active: 8.2 µM |  |
| Cc1cc(=O)[nH]c(SCC(=O)Nc2cccc3ccccc23)c1C#N | inconclusive: 20 µM [cytotoxic, partial curve] |  |
| O=C(CSCc1ccc([N+](=O)[O-])cc1)NC1CC1 |  | inactive: 8.96% |
| COc1ccc(C)cc1N(C(=O)c1snc(C(N)=O)c1N)C(C(=O)NC1CCCC1)c1ccc(F)cc1 (configuration not stated) | inconclusive: 11.6 µM [cytotoxic, partial curve] |  |
| CS(=O)(=O)N(CC(=O)Nc1ccc(Br)cc1)C1CCCCC1 | inconclusive: 18.4 µM [cytotoxic, partial curve] |  |
| CC(C)(C)OC(=O)NCc1ccc(NC(=O)c2nc[nH]c2C(=O)NCCNC(=O)c2[nH]cnc2C(=O)Nc2ccc(CNC(=O)OC(C)(C)C)cc2)cc1 | active: 11.6 µM |  |
| CNC(=O)/C(C#N)=C/c1c(N(Cc2ccccc2)Cc2ccccc2)nc2c(C)cccn2c1=O | active: 18.4 µM |  |
| CC(NC(=O)c1cc(S(=O)(=O)N(C)C)ccc1N1CCCC1)C1CC2CCC1C2 (configuration not stated) |  | inactive: -13.8% |
| CCCCOc1ccc(N2CC(C(=O)NCc3ccco3)CC2=O)cc1 (configuration not stated) |  | inactive: 6.04% |
| Cc1cccc(C)c1-n1nnnc1C(c1cccs1)N1CCN(C/C=C/c2ccccc2)CC1 (configuration not stated) | inconclusive: 29.1 µM [cytotoxic, single point] |  |
| Cc1ccc(C(C(=O)Nc2ccc(C(C)C)cc2)N(C)C(=O)c2ccc(=O)[nH]c2)cc1 (configuration not stated) |  | inactive: -4.29% |
| CC(C)c1nc2sc3c(SCC(=O)NCc4ccco4)ncnc3c2c2c1CCC2 | inconclusive: 25.9 µM [cytotoxic, single point] |  |
| NNC(=O)c1oc2ccccc2c1-n1cccc1 | active: 4.61 µM |  |
| COC(=O)[C@@]1(Cc2ccc(F)cc2)[C@H]2c3cc(C(=O)N(C)C)n(Cc4ccc(C)c(F)c4F)c3C[C@H]2CN1C(=O)c1ccccc1 | inconclusive: 20.6 µM [cytotoxic, single point] |  |
| CC(C)(C)c1ccc(N=C2SCC(=O)N2Cc2cccs2)cc1 | inconclusive: 29.1 µM [cytotoxic, single point] |  |
| O=C1C=C(Nc2ccc(F)cc2)c2ccccc2C1=O | inconclusive: 16.4 µM [cytotoxic, single point] |  |
| COc1cc(S(=O)(=O)N2CCN(C(=O)c3cccs3)CC2)ccc1NC(C)=O |  | inactive: 0.844% |
| CC(=O)Nc1ccc(NC(=O)COC(=O)[C@@H]2CCCN2C(=O)c2cccs2)cc1 |  | inactive: 11.6% |
| NS(=O)(=O)c1ccc(NC(=O)/C=C/c2ccc3c(c2)OCO3)cc1 | active: 7.31 µM |  |
| COc1ccc2c(c1)c(C(=O)CN1CCc3ccccc3C1)c(C)n2C |  | inactive: -0.734% |
| Cc1ccc(/C=N/Nc2ncc(Cl)cc2Cl)s1 | active: 6.31 µM |  |

| Compound | Potency | activity, negative = less viability |
| --- | --- | --- |
| O=S(=O)(/C=C/C=C/S(=O)(=O)c1ccccc1)c1ccccc1 | inconclusive: 4.11 µM [cytotoxic, full curve, poor fit] |  |
| Cc1ccc(C2CC(=O)c3cnc(N4CCc5ccccc5C4)nc3C2)cc1 (configuration not stated) |  | inactive: -3.32% |
| COc1ccc(-n2c(SCC(=O)Nc3ccc(NC(C)=O)cc3)nc3ccccc3c2=O)cc1 | inconclusive: 29.1 µM [cytotoxic, single point] |  |
| COC(=O)c1ccc(CNC(=O)CN2C(=O)NC(Cc3ccccc3)(c3ccccc3)C2=O)cc1 (configuration not stated) |  | inactive: -11.9% |
| COCCOC(=O)C1=C(C)NC(C)=C(C(=O)OCCOC)C1/C=C/c1ccccc1OC |  | inactive: -8.16% |
| Cc1ccc2nc(-c3ccncc3)cc(-c3ccccc3)c2c1 | inconclusive: 35.5 µM [cytotoxic, single point] |  |
| CCOC(=O)C1(Cc2cccc(OC)c2)CCN(Cc2cccc(OC)c2OC)CC1 | inconclusive: 23.1 µM [cytotoxic, single point] |  |
| COc1ccc(-c2nc3cc(C)ccn3c2NC2CCCCC2)cc1SC1CCCCC1 | inconclusive: 33.2 µM [cytotoxic, single point] and inconclusive: 20.6 µM [cytotoxic, single point] |  |
| Cc1ccc(C(OCC(O)CNCc2ccc(F)cc2)c2ccccc2)cc1 (configuration not stated) |  | inactive: -22.6% |
| CC[C@@H]1C=C(C(=O)O)[C@H](c2ccc(Br)cc2)N1S(=O)(=O)c1ccc(C)cc1 |  | inactive: -4.75% |
| COc1ccc([N+](=O)[O-])cc1NC(=O)CSc1ccc2ccccc2c1 | inconclusive: 18.4 µM [cytotoxic, single point] |  |
| CC1(Cc2cccc(C(F)(F)F)c2)C(=O)Nc2ccc(-c3ccc(F)c(Cl)c3)cc21 (configuration not stated) | inconclusive: 18.4 µM [cytotoxic, single point] |  |
| CCSc1nsc(NC(=O)Nc2cccc(OC)c2)n1 | inconclusive: 20.6 µM [cytotoxic, single point] |  |
| O=C(NCc1ccco1)Nc1ccc([N+](=O)[O-])cc1 |  | inactive: 0.796% |
| Cc1ccc(C(=O)Cn2c(=N)n(CCN3CCOCC3)c3ccccc32)cc1 |  | inactive: -6.69% |
| COc1ccc(N(C)C2=NS(=O)(=O)c3ccccc32)cc1 | active: 11.6 µM |  |
| CCN1C(=O)[C@H]2[C@@H](c3ccc(-c4cccc(Cl)c4)c(OC)c3)N[C@@](CC(C)C)(C(=O)OC)[C@H]2C1=O |  | inactive: -12.1% |
| CC1=C(C(=O)OCc2ccc3c(c2)OCO3)C(c2ccc(F)cc2)NC(=O)N1 (configuration not stated) | active: 4.47 µM |  |
| CCOC(=O)C1CCCN(C(=O)c2ccc3c(c2)C(C)(C)CCC3(C)C)CC1 (configuration not stated) | inconclusive: 20.6 µM [cytotoxic, single point] |  |
| Cc1cnc(C(=O)OCC(=O)Nc2ncc(Cl)cc2Cl)cn1 |  | inactive: 0.573% [at 9.24 µM] |
| Cc1ccc(OCC(=O)Nc2ccc3c(c2)nc(CCN2CCC(C)CC2)n3C)cc1 | inconclusive: 32.6 µM [cytotoxic, single point] |  |
| CN(C)c1cccc(C(=O)N2CCCC(CCC(=O)NCc3ccccc3F)C2)c1 (configuration not stated) | inconclusive: 29.1 µM [cytotoxic, single point] |  |
| CN(C)c1ccc(Nc2nc(N)c3ccccc3n2)cc1 | inconclusive: 18.4 µM [cytotoxic, single point] |  |
| Cc1c(CC(C)C)nc(N)c(C#N)c1-c1ccccc1 | inconclusive: 16.4 µM [cytotoxic, single point] |  |

| Compound | Potency | activity, negative = less viability |
| --- | --- | --- |
| O=C(O)c1ccc(N/N=C/c2cn(Cc3ccc(F)cc3)c3ccccc23)cc1 |  | inactive: -15.8% |
| Cc1ccc(OCc2ccc(C(=O)Nc3c(C)nn(Cc4c(F)c(F)c(F)c(F)c4F)c3C)o2)c([N+](=O)[O-])c1 | inconclusive: 22.4 µM [cytotoxic, single point] |  |
| O=C(c1ccc(S(=O)(=O)N2CCCC2)cc1)N1CCN(c2cccc(Cl)c2)CC1 |  | inactive: -16.7% |
| COc1ccc(-n2c(SCC(=O)Nc3ccc(C(N)=O)cc3)nc3ccccc3c2=O)cc1OC |  | inconclusive: -8.59% [cytotoxic] |
| Oc1cccc2ccc(/C=C/c3ccccc3Br)nc12 | inconclusive: 7.31 µM [cytotoxic, partial curve] |  |
| COc1cc(C2c3cc4c(cc3C3OC(=O)C2C3CO)OCO4)cc(OC)c1OC (configuration not stated) | active: 0.0103 µM |  |
| CC(=O)Nc1ccc(S(=O)(=O)N(Cc2cccnc2)Cc2cc3ccc(C)cc3[nH]c2=O)cc1 |  | inactive: -4.11% |
| O=C(CC(c1ccccc1)c1cc(Br)ccc1O)NCc1ccco1 (configuration not stated) | inconclusive: 29.1 µM [cytotoxic, single point] |  |
| CC(Oc1ccc2c3c(c(=O)oc2c1)CCCC3)C(=O)NCc1cccnc1 (configuration not stated) |  | inactive: -0.0028% |
| Cn1ccsc1=NC(=O)c1ccc(S(C)(=O)=O)c([N+](=O)[O-])c1 |  | inactive: -15.8% |
| CCCCc1c(-c2ccc(OC)cc2)ncn1CCc1ccccc1OC | active: 16.4 µM |  |
| O=C(O)CC1(CC(=O)N2CCC(C(=O)O)CC2)CCCC1 |  | inactive: 10.7% |
| COc1ccc(CNC(=O)CN2C(=O)NC(c3ccccc3)(c3ccccc3)C2=O)cc1OC |  | inactive: -6.14% |
| CCC(C)C(CO)NCCCn1cnc2c(OC)ncnc21 (configuration not stated) | inconclusive: 25.9 µM [rising, single point] |  |
| CC(=O)Nc1cccc(-c2ccnc3c2CC(C(=O)Nc2ccc(C(C)C)cc2)O3)c1 (configuration not stated) | inconclusive: 23.1 µM [cytotoxic, single point] |  |
| CCN(CC)S(=O)(=O)c1ccc(C)c(NC(=O)CNc2cccc(S(=O)(=O)N3CCCC3)c2)c1 |  | inactive: -5.61% |
| COc1ccc(S(=O)(=O)N2CCOCC2)cc1NC(=O)CCc1c[nH]c2ccccc12 |  | inactive: 3.14% |
| Cc1ccc2c(c1)[nH]c1c(=O)n(CCN3CCCCC3)cnc12 |  | inactive: 0.194% |
| CC(C1CC1)N(Cc1ccccc1)C(=S)Nc1ccccc1Cl (configuration not stated) |  | inactive: 0.622% |
| C=C1C(=O)C=C2CN(C(=O)c3ccccc3)[C@@](Cc3ccc(F)cc3)(C(=O)OC)[C@@H]12 | active: 11.6 µM |  |
| CCCCn1nnnc1C(c1ccccc1OC(F)(F)F)N1CCN(C/C=C/c2ccccc2)CC1 (configuration not stated) | inconclusive: 29.1 µM [cytotoxic, single point] |  |
| Cc1ccc(-c2ccccc2NC(=O)CS(=O)CC(=O)Nc2ccc(C)c(Cl)c2)o1 (configuration not stated) |  | inactive: -2.95% |
| Cc1ccc(-n2cc(CNCCc3ncc(C)[nH]3)c(-c3ccc(F)cc3)n2)cc1 | active: 16.4 µM |  |
| CC(C)c1ccc(S(=O)(=O)N2CCC(C(=O)NCc3ccco3)CC2)cc1 |  | inactive: 8.82% |
